This note sets out measurements from PubChem BioAssay AID1346428 (National Center for Advancing Translational Sciences (NCATS), 2018).

Where “and” joins values, the source holds several entries; their conditions need not be identical. Equal values may be shown once. The campaign covered roughly 48,000 compounds. About 1,200 (2.5%) were called active. Not shown: some 2% with an inconclusive outcome.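 Rule for the calls: active = activation of at least 60% and not above a set upper limit (about 1 call in 100 departs from these limits); inconclusive = activation of 40% to 60%, or above that upper limit; inactive = activation under 40%.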 The list shows a part of the results.

This experiment has as its target Probable G-protein coupled receptor 32 (Homo sapiens) (UniProt O75388). The experiment is described as follows: qHTS for Agonists of Human Resolvin D1 Receptor DRV1. Note: 0% is about no effect. To be noted: CHO-K1 GPR32 beta-arrestin PathHunter luminescence, 90 min; at 76.9 µM; stronger effect = higher value; zero percent set by DMSO-only wells. A digest of the protocol: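 Step 1: seed CHO-K1 GPR32 beta-arrestin cells, 2,500/well, overnight at 37 °C. Step 2: add compounds, 90 min at 37 °C. Step 3: detection reagent, 1 h ambient, then luminescence.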
Chain of UniProt O75388 (O75388 whole entry, looked up): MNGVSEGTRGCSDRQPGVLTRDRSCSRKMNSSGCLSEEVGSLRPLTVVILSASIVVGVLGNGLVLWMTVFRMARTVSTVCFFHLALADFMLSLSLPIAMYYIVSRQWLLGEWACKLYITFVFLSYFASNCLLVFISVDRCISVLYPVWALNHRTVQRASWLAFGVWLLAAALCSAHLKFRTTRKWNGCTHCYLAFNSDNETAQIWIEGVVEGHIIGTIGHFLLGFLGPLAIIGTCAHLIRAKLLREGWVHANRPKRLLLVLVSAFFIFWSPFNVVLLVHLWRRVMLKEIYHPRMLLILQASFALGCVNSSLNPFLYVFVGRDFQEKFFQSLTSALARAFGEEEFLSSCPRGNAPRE
In general terms: qHTS replaces the single test concentration by a dilution series.
Take `Cc1ccc(CNC(=O)c2ccc3c(c2)nc2n3CCCC2)cc1`: the activation was inactive: -13.4%.

Regarding `NC1CCN(O)C1=O` (centres undefined), the activation was inactive: 8.92%. Under `COc1ccc(-c2cc(OC(=O)c3cccc(C)c3)c3c(C)oc(C)c3c(=O)c2)cc1` stands inactive: -12.7%. Consider `Cc1cc(C)c(NC(=O)Cn2nnc(C(=O)Nc3ccc(F)cc3F)c2N)c(C)c1`, for which the activation is inactive: 1.02%. As to `COc1cccc(NC(=O)c2nnn(Cc3ccc(OC)c(Br)c3)c2N)c1`, the activation is inactive: 5.26%. As to `C1CCC(N=C(NC23CC4CC(CC(C4)C2)C3)N2CCOCC2)CC1`, the activation is inactive: -3.67%. For `CCc1nn2c(=O)cc(COC(=O)C3CCCCC3)nc2s1`, the activation was inactive: 5.49%. On to `CCOC(=O)c1cc(-c2ccccc2)n(CCCC(=O)Nc2ccc(C)cc2Cl)c1C`, for which the activation is inactive: -16.5%.

For `CCn1cc(C(=O)NCc2ccccc2OC)c(=O)c2cc(S(=O)(=O)N3CCCCCC3)ccc21`, the activation was inactive: -18.2%.

With `CCc1ccc(NC(=O)C2CCCN(S(=O)(=O)c3cccc4nonc34)C2)cc1` (centres undefined), the activation is active: 89%. Consider `CC(=O)N1CCN(c2ccc(O)cc2)CC1`, for which the activation is inactive: 42%. The figure for `COc1ccc(CNC(=O)C2CCN(S(=O)(=O)c3ccc4nc5c(c(C(=O)O)c4c3)CC(C)CC5)CC2)cc1` (centres undefined) is inactive: -15.6%. Under `Cc1cc(C)c(NS(=O)(=O)c2cc(-c3cnc(C4CC4)o3)ccc2C)c(C)c1` stands inactive: -11%. Under `Cc1ccsc1CCN1C(=O)N(c2ccc(F)cc2)C(=O)C1CC(=O)Nc1ccccc1` (centres undefined) stands inactive: -4.54%. Take `COc1cccc(NS(=O)(=O)c2cc3c4c(c2)C(C)C(=O)N4CCC3)c1` (centres undefined): the activation was inactive: 9.34%. The figure for `CCc1ccc(NC(=O)c2c(C(=O)Nc3ccccc3)sc3nc(C)cc(=O)n23)cc1` is inactive: 11.7%; for `CN1C(=O)Cc2cc(S(=O)(=O)CCC(=O)N3CCN(c4cccc(Cl)c4)CC3)ccc21` it is inactive: 23.4%. `COc1cccc(-c2cc(C(=O)N3CCN(c4ccc(F)cc4)CC3)no2)c1`: the activation is inactive: -11.9%. Under `CCOc1ccc(NC(=O)Cn2cnc3c(oc4ccccc43)c2=O)cc1` stands inactive: -1.43%; under `CCN(C(=O)C1CCCN(c2ncnc3onc(-c4ccc(F)cc4)c23)C1)c1ccccc1` (centres undefined), inactive: -8.37%; under `O=C(O)C1=CC(=C(c2ccc(O)c(C(=O)O)c2)c2ccc(O)c(C(=O)O)c2)C=CC1=O`, inactive: -14.8%. Under `COc1ccc(C(=O)Nc2nnc(S(=O)(=O)N3CCC(C)CC3)s2)cc1OC` stands inactive: 8.16%; under `O=C(c1cccc(F)c1)N1CCC(c2c[nH]c3ccccc23)(c2c[nH]c3ccccc23)CC1`, inactive: -8.47%. The figure for `CCOc1ccc(NC(=O)NCCn2nnc3cc(S(=O)(=O)N(C)C)ccc32)cc1` is inactive: 1.75%; for `CC(C)(C)c1ccc(-c2nc(S(=O)(=O)c3ccccc3)c(N3CCOCC3)o2)cc1` it is inactive: -38.3%; for `O=C(NCC1CCCO1)c1c[nH]c2ccc(S(=O)(=O)Nc3ccc(F)cc3F)cc2c1=O` (centres undefined) it is inactive: -1.21%. Regarding `CCOC(=O)C1=C(CN2CCCCC2)NC(=O)NC1c1ccc(C)cc1` (centres undefined), the activation is inactive: -18.1%. For the molecule `COc1cccc(CNS(=O)(=O)c2ccc(N3CCCCS3(=O)=O)cc2)c1`, the activation was inactive: 12.8%.

With `CC1CCCCN1Cc1c(O)ccc2c(=O)c(-c3ccccc3)coc12` (centres undefined), the activation was inactive: -3.71%. Under `CCOc1ccc(C(CC(=O)Nc2cc(C)c(Cl)cc2OC)N2Cc3ccccc3C2=O)cc1OC` (centres undefined) stands inactive: -1.34%. Under `COc1ccc(C2CC(=O)c3c([nH]c(C(=O)OC4CCCCCC4)c3C)C2)cc1OC` (centres undefined) stands inactive: 15.1%; under `COc1cccc(CNC(=O)CCCn2nc(C)n3c(cc4sccc43)c2=O)c1`, inactive: -7.62%. The figure for `COc1ccc(Cn2ccc3nc(C)c(C(=O)NCc4ccc(OC)cc4OC)cc3c2=O)cc1` is inactive: -11.9%; for `COC(=O)c1ccccc1NC(=O)CCc1c(C)nc2c(c(C)nn2-c2ccccc2)c1C` it is inactive: -10.5%; for `COc1ccc(-c2cc(C(=O)N3CCN(c4ccc(F)cc4)CC3)no2)cc1OC` it is inactive: 34%. As for `Cc1ccc(N2CC(NC(=O)c3ccco3)CC2=O)cc1C` (centres undefined), the activation is inactive: 2.59%. As for `CC(C)COc1ccc(-c2nonc2NC(=O)c2ccc(F)cc2)cc1`, the activation was inactive: 8%. Under `O=C(NCCc1ccccc1)c1ccc(CSc2nc3ccncc3n2Cc2ccccc2F)cc1` stands inactive: -8.62%; under `CCN(C(=O)c1nn(-c2ccc(C)cc2)c(=O)c2c1c1ccccc1n2C)c1ccc(F)cc1`, inactive: -3%; under `Cc1cccc(OCC(=O)N(Cc2ccc(C(C)C)cc2)Cc2ccco2)c1C`, inactive: -21.7%.

As for `COc1ccc(NC(=O)C(C)n2c(C)c3cnn(-c4ccccc4)c(=O)c3c2C)cc1Cl` (centres undefined), the activation was inactive: -10.7%.

As to `CCOC(=O)c1cc(-c2ccc(F)cc2)n(CCC(=O)NCc2ccccc2OC)c1C`, the activation is inactive: -22.8%. In the case of `CCOC(=O)c1cnc2c(C)cc(Cl)cc2c1NCCc1ccc(OC)c(OC)c1`, the activation is inactive: -1.91%. With `O=C(Cn1ncc2c([nH]c3ccccc32)c1=O)NCc1cccc(Cl)c1`, the activation is inactive: -4.83%. Under `O=C(CCCn1ccc2cc(S(=O)(=O)N3CCCC3)ccc21)NCc1ccc(Cl)cc1` stands inactive: -7.63%. As to `CC1CC(=O)N(CC(=O)Nc2ccc(F)cc2F)c2ccccc2S1` (centres undefined), the activation was inactive: -1.65%.

Regarding `CCCn1c(=O)c(C)cn2nc(N)nc12`, the activation is inactive: -6.32%. With `Cn1c(=O)[nH]c(=O)c2c1nc(NCCO)n2CC(O)COc1ccccc1` (centres undefined), the activation was inactive: 26.8%. Under `CCOc1ccc(/C=C/c2nc(C#N)c(Nc3ccc(OCC)cc3)o2)cc1` stands inactive: -15.5%. The figure for `Cc1c(-c2ccccc2)c(=O)oc2c(CN3CCCC3)c(O)ccc12` is inactive: -10.7%; for `CCc1ccc(C2CC(=O)NC(NC(=O)c3ccc(C(C)(C)C)cc3)=N2)cc1` (centres undefined) it is inactive: 11.5%; for `Cc1nc2ccn(Cc3ccccc3)c(=O)c2cc1C(=O)NCc1ccccc1F` it is inactive: -12.2%.

Take `O=C(NCCc1ccc(Cl)cc1)c1ccc2c(c1)N(Cc1ccccc1F)C(=O)c1ccccc1S2(=O)=O`: the activation was inactive: 1.32%. With `CCOc1ccc(NC(=O)Cn2c(=O)n(Cc3ccc(C(=O)NCc4ccc(C)cc4)cc3)c(=O)c3ccccc32)cc1`, the activation was inactive: -5.87%.

For `COc1cccc(CNC(=O)CN2C(=O)COc3ccc(S(=O)(=O)N4CCCCCC4)cc32)c1`, the activation is inactive: -22.4%. The figure for `Cc1ccc(-c2nc3ncccc3o2)cc1NC(=O)c1ccccc1Br` is inactive: -16.8%; for `CCc1cccc(NC(=O)Cn2c(=O)n(CCC(=O)NCC3CCCO3)c(=O)c3cc(OC)c(OC)cc32)c1` (centres undefined) it is inactive: -2.95%; for `O=c1cc(-c2ccccc2)oc2ccccc12` it is active: 62.3%. Under `Cc1ccc(CSC2=Nc3ccccc3C3=NC(CC(=O)NCc4cccs4)C(=O)N23)cc1` (centres undefined) stands inactive: -33%; under `CN(C)c1ccc(NC(=O)CN2CCN(CC(=O)Nc3ccc(Br)cc3)CC2)cc1`, inactive: -7.64%. Consider `Cc1ccc(CNC(=O)c2cc3c(s2)-c2ccc(Cl)cc2SC3)cc1`, for which the activation is active: 106%.

Turning to `Cn1c(-c2ccc(S(=O)(=O)N3CCCC3)cc2)csc1=Nc1ccc(Cl)c(Cl)c1`, the activation is inactive: -5.99%. For `CC(C)c1ccccc1Oc1c(C(F)(F)F)oc2c(CN3CCN(C)CC3)c(O)ccc2c1=O`, the activation is inactive: 7.72%. Under `CCOC(=O)c1c(C)c(C(=O)NCc2ccc(Cl)cc2)c(C)n1CC` stands inactive: -10.4%; under `CCC1CCc2nc3sc(C(=O)Nc4ccc(F)c(F)c4)c(N)c3cc2C1` (centres undefined), inactive: 4.79%. The figure for `COc1ccc(NC(=O)CSc2nc3c(c(=O)[nH]2)CCC3)cc1` is inactive: 16.2%; for `O=c1ccn([C@@H]2O[C@H](COP(=O)(O)OP(=O)(O)O)[C@@H](O)[C@H]2O)c(=O)[nH]1` it is inactive: 3.65%. On to `Brc1ccc(CN2CCc3nc(N4CCN(c5ncccn5)CC4)ncc3C2)cc1`, for which the activation is inactive: -17.3%.

Take `O=C(Cn1c(=O)n(CCc2ccccc2)c(=O)c2c3c(sc21)CCCC3)Nc1ccc(F)c(F)c1`: the activation is inactive: 7.67%. For the molecule `CCCc1nnc(NC(=O)Cc2coc3ccc(C)cc23)s1`, the activation was inactive: 0.0879%. The figure for `CCOc1ccccc1Nc1sc(C(=O)c2ccc(Cl)cc2)c(N)c1C(=O)NCCc1ccccc1` is inactive: -16.3%; for `Cc1ccccc1NC(=O)CSc1nc2ccccc2c2nc(CCn3c(C)nc4ccccc43)nn12` it is inactive: -11.8%; for `Cc1ccc(CNC(=O)c2cn(C)c3ccc(S(=O)(=O)N4CCOCC4)cc3c2=O)cc1` it is inactive: -2.19%.

Turning to `COc1ccccc1N1CCN(C(=O)c2cc3c(=O)oc4ccc(C)cc4c3s2)CC1`, the activation is inactive: -1.48%. On to `COc1ccc(OC)c(S(=O)(=O)Nc2cccc(-c3ccc(N4CCCCCC4)nn3)c2)c1`, for which the activation is inactive: -9.88%. Under `CCOc1ccc(-c2nc(CNC(=O)Nc3ccccc3)c(C)o2)cc1` stands inactive: 17.3%. Under `COc1ccc(NCc2cc3ccc(OC)cc3n(CC(=O)Nc3cccc(OC)c3)c2=O)cc1` stands inactive: -29.4%; under `CCn1c(C(=O)N2CCC(C(=O)NCCCOC)CC2)cc2sccc21`, inactive: -1.41%; under `COc1cc(NC(=O)c2nn(-c3ccc(F)cc3)c(=O)n(C)c2=O)cc(OC)c1OC`, inactive: -17.6%. Consider `O=C(COCc1cc(-c2cccs2)on1)NCc1cccc(Cl)c1`, for which the activation is inactive: -12.9%. For the molecule `CC(C(O)c1ccc(O)cc1)N1CCC(Cc2ccccc2)CC1` (centres undefined), the activation was inactive: 4.83% and inactive: 3.24%. For the molecule `Cc1cc(C)c(/C=C/c2onc(C)c2S(=O)(=O)N2CCC(C(=O)Nc3ccc(Cl)cc3C)CC2)c(C)c1`, the activation is inactive: 0.926%. Under `Cc1cn(S(=O)(=O)c2ccc(F)c(Cl)c2)cn1` stands inactive: 10%; under `Cc1ccccc1NC(=O)c1c(NC(=O)C(F)(F)F)sc2c1CCCCC2`, inactive: 20%.
